Experimental data taken from PMC4242493.
This is one part of the list. The list includes weakly bound sequences.

Each sequence was assayed against MaxL homodimer (UniProt P61244) (assay: universal protein-binding microarray (PBM)). Conditions: PBS-based mixture, 10 nM His-tagged protein dimer, 2% milk, 200 ng/uL BSA, 50 ng/uL salmon testes DNA, 0.02% TX-100; detection with Alexa 488 anti-His …; high values mean tight binding; most listed sequences are background and not binding sites; double strand, one strand shown.
Chain of UniProt P61244 (P61244 whole entry): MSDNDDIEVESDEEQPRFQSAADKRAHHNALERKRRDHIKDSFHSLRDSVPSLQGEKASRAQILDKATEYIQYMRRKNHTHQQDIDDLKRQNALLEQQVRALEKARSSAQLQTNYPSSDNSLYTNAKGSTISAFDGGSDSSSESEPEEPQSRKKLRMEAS
CCACTCCC showed a binding signal (normalized occupancy) of 0.0792.
ATTGTAGC showed a binding signal (normalized occupancy) of 0.0787.
Sequence CCTATCGC has a binding signal (normalized occupancy) of 0.0756.
CACGAAGG was tested, and the binding signal (normalized occupancy) was 0.0704.
CACAATCG was tested, and the binding signal (normalized occupancy) was 0.0756.
For AAGTCTCG, the binding signal (normalized occupancy) was 0.0717.
Work on CAAATGGC yielded a binding signal (normalized occupancy) of 0.0778.
Sequence ACTTCTAC has a binding signal (normalized occupancy) of 0.0757.
AAGATGAT was tested, and the binding signal (normalized occupancy) was 0.0791.
In the case of TAGCGGCA, the binding signal (normalized occupancy) is reported as 0.0701.
AACGGCGC showed a binding signal (normalized occupancy) of 0.0729.
For ACGCACGT, the binding signal (normalized occupancy) was 0.0986.
ACAATGTG gave a binding signal (normalized occupancy) of 0.0995.
Work on GTTCCCTA yielded a binding signal (normalized occupancy) of 0.0721.
GATTCGAC showed a binding signal (normalized occupancy) of 0.0715.
For CGGTATCA, the binding signal (normalized occupancy) was 0.0795.
With CCGCCGCC the binding signal (normalized occupancy) was 0.0692.
Sequence AGTGGTGC has a binding signal (normalized occupancy) of 0.077.
AGTTTTCG showed a binding signal (normalized occupancy) of 0.0705.
CAATTGCA gave a binding signal (normalized occupancy) of 0.0772.
In the case of GGAGGGCC, the binding signal (normalized occupancy) is reported as 0.0707.
With CATGTGGC the binding signal (normalized occupancy) was 0.165.
TCTAGAAA was tested, and the binding signal (normalized occupancy) was 0.0769.
Sequence ATTCGAGC has a binding signal (normalized occupancy) of 0.0703.
Sequence CCGCAGCA has a binding signal (normalized occupancy) of 0.07.
For GGTGCTAC, the binding signal (normalized occupancy) was 0.0789.
Work on ATCGAAAC yielded a binding signal (normalized occupancy) of 0.073.
GATCGGAA was tested, and the binding signal (normalized occupancy) was 0.0717.
AGACATAC gave a binding signal (normalized occupancy) of 0.0781.
CCCCAAAG gave a binding signal (normalized occupancy) of 0.0697.
ACCCCTCG gave a binding signal (normalized occupancy) of 0.0765.
Work on GGGGCCGA yielded a binding signal (normalized occupancy) of 0.0742.
CAGCGGCG gave a binding signal (normalized occupancy) of 0.0694.
CTCGTTAA was tested, and the binding signal (normalized occupancy) was 0.0775.
TCTCTTAA was tested, and the binding signal (normalized occupancy) was 0.0715.
With CACACGCA the binding signal (normalized occupancy) was 0.0865.
Sequence CATAGGAA has a binding signal (normalized occupancy) of 0.0749.
AGTTATGC showed a binding signal (normalized occupancy) of 0.0769.
Sequence ACGGCTTA has a binding signal (normalized occupancy) of 0.0706.
Work on CTGAGTCA yielded a binding signal (normalized occupancy) of 0.076.
In the case of AGCTTCAT, the binding signal (normalized occupancy) is reported as 0.0774.
Work on CCGCCGGA yielded a binding signal (normalized occupancy) of 0.0684.
GGAGTGCA showed a binding signal (normalized occupancy) of 0.0787.
In the case of CCTCGAGG, the binding signal (normalized occupancy) is reported as 0.0864.
AGAGCTGG was tested, and the binding signal (normalized occupancy) was 0.0694.
Sequence CATCTGGG has a binding signal (normalized occupancy) of 0.0809.
AATATGCC was tested, and the binding signal (normalized occupancy) was 0.0803.
With CGATCAAG the binding signal (normalized occupancy) was 0.0698.
GCAGATGC was tested, and the binding signal (normalized occupancy) was 0.078.
Sequence GCCCAGTA has a binding signal (normalized occupancy) of 0.069.
In the case of CCGTAATA, the binding signal (normalized occupancy) is reported as 0.0774.
Sequence CATAGCGG has a binding signal (normalized occupancy) of 0.0744.
For CTTCGCCC, the binding signal (normalized occupancy) was 0.0688.
GAGGGGCC gave a binding signal (normalized occupancy) of 0.0703.
AAAGCGTC was tested, and the binding signal (normalized occupancy) was 0.0666.
AGGCCAGG was tested, and the binding signal (normalized occupancy) was 0.0673.
With ACCGCATG the binding signal (normalized occupancy) was 0.146.
For GTCCCCAA, the binding signal (normalized occupancy) was 0.0697.
AGGTTGAA was tested, and the binding signal (normalized occupancy) was 0.0675.
GGTAGTTA gave a binding signal (normalized occupancy) of 0.0798.
Work on GCTGGACA yielded a binding signal (normalized occupancy) of 0.073.
CTATTCGA showed a binding signal (normalized occupancy) of 0.0711.
CCTGGCAC was tested, and the binding signal (normalized occupancy) was 0.072.
For ACTGTTGG, the binding signal (normalized occupancy) was 0.0703.
GCGCGCCA was tested, and the binding signal (normalized occupancy) was 0.0743.
Work on CGCGGGAG yielded a binding signal (normalized occupancy) of 0.0678.
ATAATGGC showed a binding signal (normalized occupancy) of 0.0796.
For GAGTGGGC, the binding signal (normalized occupancy) was 0.0768.
Sequence ACAACCCC has a binding signal (normalized occupancy) of 0.0879.
For CAATCAGG, the binding signal (normalized occupancy) was 0.0728.
Work on GGGATGAA yielded a binding signal (normalized occupancy) of 0.0785.
Work on CCGCCGAC yielded a binding signal (normalized occupancy) of 0.0726.
For ATTAATCA, the binding signal (normalized occupancy) was 0.0813.
AGAGGAAG showed a binding signal (normalized occupancy) of 0.0689.
Work on CGAAGCCC yielded a binding signal (normalized occupancy) of 0.0666.
With ACCCAGTG the binding signal (normalized occupancy) was 0.0756.
CTCTTTCC gave a binding signal (normalized occupancy) of 0.0687.
ATACCTAC showed a binding signal (normalized occupancy) of 0.0834.
GAGTTCAC was tested, and the binding signal (normalized occupancy) was 0.0734.
In the case of CAAACTGC, the binding signal (normalized occupancy) is reported as 0.0706.
Work on CCTCTTTA yielded a binding signal (normalized occupancy) of 0.0728.
CTGCAGCC was tested, and the binding signal (normalized occupancy) was 0.0738.
Work on GATAATAC yielded a binding signal (normalized occupancy) of 0.0839.
With GCGTCCCC the binding signal (normalized occupancy) was 0.0712.
For TGGTTCAA, the binding signal (normalized occupancy) was 0.0757.
For GCAAGAAA, the binding signal (normalized occupancy) was 0.0745.
